PubChem BioAssay (Tox21)
Values joined by “and” are separate entries in the source; they are usually repeats but may differ in a detail not shown here. Equal values may be shown once. The inconclusive results got no clear call from the source; some entries with a clear call stand among them for comparison. Potencies beside an inconclusive call are fits to weak or partial responses and may not hold up. Active and inactive are the calls of the source. Calls come from the whole dose curve; as a rule, active = well fitted inhibition curve with a large enough effect in the repeat runs; inconclusive = weak or mixed curves; inactive = no such curve, though single readings can be large or run the other way.

Each molecule was assayed against Cytochrome P450 1A2 (Homo sapiens) (UniProt P05177) (assay: Cytochrome P450 Family 1 Subfamily A Member 2 (CYP1A2) small molecule antagonists: luciferase reporter qHTS assay (AID 1671199; note: nearly all actives have a fitted effect of over 50% in size)). Settings: P450-Glo CYP1A2 enzyme, luciferin luminescence, 1 h; series mostly up to 115 µM; activity change, negative = inhibition: at the top concentration.
Method in brief: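 Steps: enzyme-substrate mix dispensed; test compounds and furafylline control pinned in; 10 min room temperature; NADPH regeneration solution added, 1 h; reaction stopped with luciferin detection reagent; luminescence read after 20 min.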
% is set by controls: 0 for no effect and ±100 for the full control effect; potency is the fitted concentration of half-maximal effect; tags give direction and shape of the fitted curve.

UniProt P05177, sequence (P05177 whole entry, looked up): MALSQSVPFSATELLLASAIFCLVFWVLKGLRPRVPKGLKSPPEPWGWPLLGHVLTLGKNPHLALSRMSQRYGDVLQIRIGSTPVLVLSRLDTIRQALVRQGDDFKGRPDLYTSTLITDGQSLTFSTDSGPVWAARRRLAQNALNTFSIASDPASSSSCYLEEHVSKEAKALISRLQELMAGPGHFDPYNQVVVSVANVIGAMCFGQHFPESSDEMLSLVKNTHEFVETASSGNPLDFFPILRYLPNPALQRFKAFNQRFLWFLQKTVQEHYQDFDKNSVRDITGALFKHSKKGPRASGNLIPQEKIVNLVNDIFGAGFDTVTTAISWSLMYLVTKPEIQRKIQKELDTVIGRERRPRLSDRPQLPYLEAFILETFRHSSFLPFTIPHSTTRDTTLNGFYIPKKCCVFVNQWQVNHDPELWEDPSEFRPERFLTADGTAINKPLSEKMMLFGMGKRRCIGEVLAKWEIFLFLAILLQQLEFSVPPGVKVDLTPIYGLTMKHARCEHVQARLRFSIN

Question: For O=c1[nH]cnc2ccccc12, which Potency is on record?
Answer: inconclusive: 65.3 µM [inhibitor, partial curve]

Question: How did the Potency turn out when O=C(O)CP(=O)(O)O was run?
Answer: inconclusive: 27.5 µM [inhibitor, partial curve]

Question: With NS(=O)(=O)c1ccc(NC(=O)CCC(=O)O)cc1 as the molecule, how does the “activity change, negative = inhibition” value read?
Answer: inactive: -3.46% [at 53 µM]

Question: Which Potency does the source give for C=C1CC[C@H](O)CC1=C/C=C1\CCC[C@]2(C)[C@@H]([C@H](C)/C=C/[C@H](C)C(C)C)CC[C@@H]12 here?
Answer: inconclusive: 31.4 µM [inhibitor, partial curve] and inconclusive: 63.3 µM [inhibitor, partial curve]

Question: Which Potency does the source give for Nc1cc([N+](=O)[O-])ccc1C(=O)O here?
Answer: inconclusive: 44.8 µM [inhibitor, partial curve]

Question: With Cn1sccc1=O as the molecule, how does the Potency read?
Answer: active: 35.6 µM and active: 31.7 µM

Question: For Oc1cccc(O)c1O, which Potency is on record?
Answer: inconclusive: 39.6 µM [inhibitor, partial curve]

Question: CCCCCc1ccc(O)cc1 was tested. Which Potency did it give?
Answer: active: 63.3 µM

Question: For CCCO, which “activity change, negative = inhibition” value is on record?
Answer: inactive: -14.4%

Question: How did the Potency turn out when CCCCOCCOCCOC(=O)CCCCC(=O)OCCOCCOCCCC was run?
Answer: inconclusive: 35.7 µM [inhibitor, partial curve]

Question: Cc1ccc(C)cc1 was tested. Which Potency did it give?
Answer: inconclusive: 44.9 µM [inhibitor]

Question: CN(C)CCOC(c1ccc(Cl)cc1)c1ccccn1 (stereo not drawn) was tested. Which Potency did it give?
Answer: inconclusive: 24.5 µM [inhibitor, partial curve]

Question: CC(C(=O)O)c1ccc2c(c1)Cc1cccnc1O2 (stereo not drawn) was tested. Which “activity change, negative = inhibition” value did it give?
Answer: inactive: -5.59% [at 53 µM]

Question: How did the Potency turn out when CCCCOC(=O)CCS was run?
Answer: inconclusive: 25.2 µM [inhibitor, partial curve]

Question: For CN1CCN(C2=Nc3cc(F)ccc3Cc3ccccc32)CC1, which Potency is on record?
Answer: inconclusive: 43.6 µM [inhibitor, single point]

Question: With CC1(C)CC(O)CC(C)(C)N1 as the molecule, how does the Potency read?
Answer: inconclusive: 40.7 µM [inhibitor, partial curve]

Question: For CO[C@H]1C=CO[C@@]2(C)Oc3c(C)c(O)c4c(O)c(c5c(c4c3C2=O)=NC2(CCN(CC(C)C)CC2)N=5)NC(=O)/C(C)=C\C=C/[C@H](C)[C@H](O)[C@@H](C)[C@@H](O)[C@@H](C)[C@H](OC(C)=O)[C@@H]1C, which Potency is on record?
Answer: inconclusive: 61.9 µM [inhibitor, partial curve]

Question: With COc1ccc(/C=C/S(=O)(=O)NC(=O)c2ccc(C)cc2Cl)cc1 as the molecule, how does the “activity change, negative = inhibition” value read?
Answer: inactive: 13%

Question: For CC(C)(Cc1c[nH]c2ccccc12)NCC(O)COc1ccccc1C#N (stereo not drawn), which Potency is on record?
Answer: inconclusive: 27.5 µM [inhibitor, partial curve, poor fit]

Question: How did the Potency turn out when Cc1ccc([N+](=O)[O-])c(C)c1 was run?
Answer: inconclusive: 35.6 µM [inhibitor, partial curve] and inactive

Question: Which “activity change, negative = inhibition” value does the source give for CCOC(=O)CC(C)C here?
Answer: inactive: -27.3%

Question: With CCC(C)C=O (stereo not drawn) as the molecule, how does the Potency read?
Answer: inconclusive: 70.9 µM [inhibitor, partial curve]

Question: Which Potency does the source give for COC(=O)CC(C(C)=O)C(=O)OC (stereo not drawn) here?
Answer: inconclusive: 79.6 µM [inhibitor, single point]

Question: Which Potency does the source give for CCCCC(CC)CNCC(CC)CCCC (stereo not drawn) here?
Answer: inconclusive: 62.8 µM [inhibitor, partial curve]

Question: For Cc1cc(=O)[nH]c(C(C)C)n1, which Potency is on record?
Answer: inconclusive: 71.6 µM [inhibitor] and inconclusive: 50.2 µM [inhibitor, partial curve]

Question: With O=C(O)c1cc(Cl)cc(Cl)c1O as the molecule, how does the Potency read?
Answer: inconclusive: 63.3 µM [inhibitor, partial curve]

Question: Which Potency does the source give for CC[C@@H](N)CO here?
Answer: inconclusive: 42.3 µM [inhibitor, partial curve]

Question: NCCOCCOCCN was tested. Which Potency did it give?
Answer: inconclusive: 35.6 µM [inhibitor, partial curve, poor fit]

Question: Which “activity change, negative = inhibition” value does the source give for CCc1nn(CCCN2CCN(c3cccc(Cl)c3)CC2)c(=O)n1CCOc1ccccc1 here?
Answer: inactive: -2.11% [at 53 µM]

Question: With O=C(O)/C=C/c1ccc(O)c(O)c1 as the molecule, how does the “activity change, negative = inhibition” value read?
Answer: inactive: 0.352%

Question: With OC(Cn1cncn1)(Cn1cncn1)c1ccc(F)cc1F as the molecule, how does the Potency read?
Answer: inconclusive: 32 µM [inhibitor, full curve] and inconclusive: 71 µM [inhibitor, partial curve]

Question: O=S1(=O)CCCO1 was tested. Which Potency did it give?
Answer: inconclusive: 63.5 µM [inhibitor] and inconclusive: 71 µM [inhibitor, partial curve]

Question: O=C(O)CCCCCCCCCCCC(=O)O was tested. Which Potency did it give?
Answer: inconclusive: 78.4 µM [inhibitor, single point] and inconclusive: 71 µM [inhibitor]

Question: Which Potency does the source give for CCCCCCCCCCC=CC1CC(=O)OC1=O (stereo not drawn) here?
Answer: inconclusive: 63.3 µM [inhibitor, partial curve]

Question: For Cc1cccc(C)c1, which Potency is on record?
Answer: inconclusive: 71 µM [inhibitor, partial curve, poor fit]

Question: With OCCNCCO as the molecule, how does the Potency read?
Answer: inconclusive: 63.3 µM [inhibitor] and inconclusive: 63.3 µM [inhibitor, partial curve]

Question: With CCCCOC(=O)CO as the molecule, how does the Potency read?
Answer: inconclusive: 50.2 µM [inhibitor, partial curve]

Question: For CN(C)CCOC(=O)C(c1ccccc1)C1(O)CCCC1 (stereo not drawn), which “activity change, negative = inhibition” value is on record?
Answer: inactive: -13.8% [at 53 µM]
